Among all 39,000 compounds or so, about 220 (0.56%) showed activity. Some of the results follow.
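Note: static incubation at 37 °C against the wild-type strain, values averaged over two biological replicates.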

The test system of this test is Escherichia coli K-12 BW25113. Put plainly: relative growth (OD600 normalised to plate interquartile mean) (fraction); higher = less growth inhibition, active = 0.2 or less. The note with it: 50 µM; LB; incubation time: overnight (16-24 h).
As for `C[C@@H]1CN([C@@H](C)CO)C(=O)c2cc(NC(=O)Nc3ccc(F)cc3)ccc2O[C@@H](C)CCCCO[C@H]1CN(C)C(=O)C1CCCCC1`, the relative growth is inactive: 0.992. The value for `C[C@H](CO)N1C[C@H](C)[C@@H](CN(C)Cc2ccc(C(=O)Nc3ccccc3N)cc2)Oc2ccc(NC(=O)Nc3ccc(F)cc3)cc2CC1=O` was inactive: 1; that for `CCS(=O)(=O)N1CC[C@]2(CC1)CN(Cc1ccc3c(c1)OCO3)[C@@H](CO)c1c2c2ccc(cc2n1C)OC` was inactive: 1.03. To `C[C@@H]1CN([C@H](C)CO)C(=O)Cc2cc(NS(C)(=O)=O)ccc2O[C@@H]1CN(C)C(=O)Nc1ccc(C(F)(F)F)cc1` belongs inactive: 0.998; to `COc1cccc(-c2ccc3c(c2)O[C@H](CN(C)C(=O)C2CC2)[C@@H](C)CN([C@@H](C)CO)S3(=O)=O)c1`, inactive: 0.988; to `C[C@H](CO)N1C[C@H](C)[C@H](CN(C)C(=O)Nc2ccc(N3CCN(C)CC3)cc2)OCc2cn(nn2)CCCC1=O`, inactive: 1.02.

For `COCCOC(=O)N1C(=O)[C@@]2(c3cc(C#Cc4ccc(OC)cc4)ccc31)[C@H](c1ccc(O)cc1)N1[C@H](c3ccccc3)[C@H](c3ccccc3)OC(=O)[C@H]1[C@@H]2C(=O)N1CCc2cc(OC)c(OC)cc2C1`, the relative growth is inactive: 1.02.

Take `COc1ccccc1-c1ccc2c(c1)O[C@@H](CN(C)CC1CCOCC1)[C@H](C)CN([C@H](C)CO)S2(=O)=O`: the relative growth was inactive: 1.02. In the case of `C[C@@H]1CN([C@H](C)CO)C(=O)c2cccc(NS(=O)(=O)c3ccccc3)c2O[C@@H]1CN(C)Cc1ccc(Oc2ccccc2)cc1`, the relative growth is inactive: 1.01. The value for `C[C@@H]1CN([C@H](C)CO)C(=O)c2cc(NC(=O)C3CCCCC3)ccc2O[C@@H](C)CCCCO[C@@H]1CN(C)C(=O)Nc1ccc2c(c1)OCO2` was inactive: 0.954. For the compound `COc1ccc(NC(=O)Nc2ccc3c(c2)[C@@H]2C[C@H](CC(=O)NCc4ccccn4)O[C@@H](CO)[C@@H]2O3)cc1`, the relative growth was inactive: 1.01. Take `CCCN(C)C[C@@H]1OCCCC[C@@H](C)Oc2ccc(NC(=O)Nc3ccc(C(F)(F)F)cc3)cc2C(=O)N([C@H](C)CO)C[C@H]1C`: the relative growth is inactive: 1.01. `CC(C)NC(=O)N(C)C[C@@H]1Oc2c(NC(=O)NC3CCCCC3)cccc2C(=O)N([C@@H](C)CO)C[C@@H]1C`: the relative growth was inactive: 0.988. For `COCCOC(=O)N1C(=O)[C@@]2(c3cc(C#Cc4ccc(OC)cc4)ccc31)[C@H](C(=O)NC[C@H](O)c1ccccc1)[C@H]1C(=O)O[C@H](c3ccccc3)[C@H](c3ccccc3)N1[C@@H]2c1ccc(OCCO)cc1`, the relative growth is inactive: 1.05. The value for `Cc1c(C(=O)O)sc2[nH]cnc(=O)c12` was inactive: 0.996.

As to `Cc1ccc(S(=O)(=O)N(C)C[C@@H]2Oc3ccc(NS(=O)(=O)c4cn(C)cn4)cc3C(=O)N([C@H](C)CO)C[C@@H]2C)cc1`, the relative growth was inactive: 1.02. To `C[C@H](CO)N1C[C@H](C)[C@@H](CN(C)Cc2ccc(-c3ccccc3)cc2)Oc2ccc(NC(=O)Nc3ccc(F)cc3)cc2CC1=O` belongs inactive: 0.994; to `CO[C@H]1CN(C)C(=O)c2cc(NS(=O)(=O)CC(F)(F)F)ccc2OC[C@@H](C)N(C(=O)c2ccc3c(c2)OCO3)C[C@@H]1C`, inactive: 1.01; to `C[C@@H]1CCCCO[C@H](CN(C)Cc2ccc(C(F)(F)F)cc2)[C@@H](C)CN([C@H](C)CO)C(=O)c2cc(NC(=O)Cc3ccccc3)ccc2O1`, inactive: 1.05. Take `COc1ccc(CN(C)C[C@@H]2OCCCC[C@@H](C)Oc3ccc(NS(=O)(=O)c4c(C)noc4C)cc3C(=O)N([C@@H](C)CO)C[C@H]2C)cc1`: the relative growth was inactive: 1.01. Turning to `CCNC(=O)[C@@H]1[C@@H](CO)[C@@H]2Cn3c(ccc(C4=CCCC4)c3=O)[C@H]1N2S(=O)(=O)c1cn(C)cn1`, the relative growth is inactive: 0.996. The value for `C[C@H](CO)N1C[C@H](C)[C@@H](CN(C)CC2CCCCC2)Oc2c(NC(=O)c3nc4ccccc4s3)cccc2C1=O` was inactive: 0.789; that for `CO[C@H]1CN(C)C(=O)c2ccc(NS(=O)(=O)CC(F)(F)F)cc2OC[C@@H](C)N(C(=O)c2ccc3c(c2)OCO3)C[C@@H]1C` was inactive: 0.987; that for `Cc1cc(C(=O)Nc2cccc3c2O[C@H](CN(C)C(=O)Nc2ccc4c(c2)OCO4)[C@H](C)CN([C@H](C)CO)C3=O)n(C)n1` was inactive: 0.991.

`C=CCC[C@H](Cc1ccc(F)cc1)C(=O)OC[C@@H]1CCCN1C(=O)[C@H](CC=C)CC(=O)N(CCO)Cc1ccccc1`: the relative growth is inactive: 1.05. The value for `O=C(O)CC1(C(F)(F)F)OCCO1` was inactive: 1.01; that for `CCNc1cc(=N)n(CC)c2n[nH]c(N)c12` was inactive: 0.969; that for `C[C@@H]1CCCCO[C@H](CN(C)C(=O)Nc2ccc3c(c2)OCO3)[C@@H](C)CN([C@H](C)CO)C(=O)c2cc(NC(=O)Nc3ccc4c(c3)OCO4)ccc2O1` was inactive: 1.02. The value for `C[C@@H]1CN([C@@H](C)CO)C(=O)c2cc(NC(=O)c3ccccc3)ccc2O[C@@H](C)CCCCO[C@@H]1CN(C)S(=O)(=O)c1cccs1` was inactive: 1.03; that for `COc1cc(Cc2cnc(N)nc2N)cc(OC)c1OC` was active: 0.044.

Take `C[C@@H]1CCCCO[C@H](CN(C)S(=O)(=O)c2cccs2)[C@@H](C)CN([C@H](C)CO)C(=O)c2cc(NC(=O)Nc3cccc4ccccc34)ccc2O1`: the relative growth was inactive: 0.987. The value for `CCCCC/C=C/C/C=C/C/C=C/C/C=C/CCCC(=O)O[C@H](CO)COC(=O)CCCCCCCCCCCCCCCCC` was inactive: 1.01; that for `CC(C)C[C@@H](NC(=O)[C@@H](C)N)C(=O)O` was inactive: 0.991. To `CC(C)NC(=O)N(C)C[C@H]1Oc2cc(C#Cc3ccccn3)ccc2S(=O)(=O)N([C@@H](C)CO)C[C@@H]1C` belongs inactive: 0.981; to `CC(C)CC#Cc1ccc2c(c1)O[C@H](CN(C)CC1CCOCC1)[C@H](C)CN([C@H](C)CO)S2(=O)=O`, inactive: 0.977. To `C[C@H](CO)N1C[C@H](C)[C@H](CN(C)C(=O)Nc2cc(F)ccc2F)Oc2ncc(C#CCN(C)C)cc2C1=O` belongs inactive: 0.987. As for `COc1ccc(S(=O)(=O)N(C)C[C@H]2Oc3ccc(NS(=O)(=O)c4ccc(F)cc4)cc3CC(=O)N([C@H](C)CO)C[C@@H]2C)cc1`, the relative growth is inactive: 1.01. Regarding `C[C@@H]1CCCCO[C@H](CN(C)C(=O)Nc2ccc(C(F)(F)F)cc2)[C@H](C)CN([C@H](C)CO)C(=O)c2cc(NS(=O)(=O)c3ccc(F)cc3)ccc2O1`, the relative growth was inactive: 0.992. To `CN(C)CC#Cc1ccc([C@H]2[C@H](CO)N3C(=O)CN(C(=O)c4cccnc4)C[C@@H]23)cc1` belongs inactive: 1.01; to `C[C@@H]1CN([C@@H](C)CO)C(=O)Cc2cc(NC(=O)C3CCCCC3)ccc2O[C@H]1CN(C)Cc1ccc(-c2ccccc2)cc1`, inactive: 0.987; to `Cc1cccc(S(=O)(=O)N2C[C@@H](O)COC[C@@H]3O[C@H](CC(=O)N4CCN(C)CC4)CC[C@H]32)c1`, inactive: 0.986. The value for `CC(C)NC(=O)N(C)C[C@@H]1Oc2ccc(NC(=O)Cc3ccccc3)cc2C(=O)N([C@@H](C)CO)C[C@H]1C` was inactive: 1; that for `CC(C)NC(=O)Nc1cccc2c1O[C@H](CN(C)C(=O)Nc1ccc3c(c1)OCO3)[C@@H](C)CN([C@H](C)CO)C2=O` was inactive: 0.982; that for `C[C@H]1CCCCO[C@@H](CN(C)S(=O)(=O)c2ccc(F)cc2)[C@@H](C)CN([C@@H](C)CO)C(=O)c2cc(NC(=O)CCC(F)(F)F)ccc2O1` was inactive: 1.01. The value for `O=c1ncc(F)c[nH]1` was inactive: 0.962; that for `COc1ccc(CN(C)C[C@H]2OCCCC[C@@H](C)Oc3ccc(NC(=O)c4ccncc4)cc3C(=O)N([C@@H](C)CO)C[C@H]2C)cc1` was inactive: 1; that for `COCC(=O)Nc1ccc2c(c1)C(=O)N(C)[C@H]1CC[C@@H](CC(=O)NC3Cc4ccccc4C3)O[C@H]1CO2` was inactive: 1.01.

As for `C[C@@H]1CN([C@H](C)CO)C(=O)c2c(c3ccccc3n2C)-c2ccccc2CO[C@@H]1CN(C)Cc1ccc(-c2ccccc2)cc1`, the relative growth is inactive: 1.01. `Cc1ccc2oc(=O)cc(Cl)c2c1`: the relative growth was inactive: 0.999. The value for `CC(C)NC(=O)Nc1ccc2c(c1)C(=O)N([C@H](C)CO)C[C@@H](C)[C@@H](CN(C)C(=O)Nc1ccc3c(c1)OCO3)O2` was inactive: 1. To `C[C@@H]1CN([C@H](C)CO)C(=O)c2cc(NS(=O)(=O)c3cccs3)ccc2O[C@@H]1CN(C)S(=O)(=O)c1cn(C)cn1` belongs inactive: 0.991.

As for `C[C@H](CO)N1C[C@H](C)[C@H](CN(C)S(=O)(=O)c2cccs2)Oc2ncc(C#Cc3ccccc3)cc2C1=O`, the relative growth was inactive: 1.04. As to `C[C@H](CO)N1C[C@H](C)[C@@H](CN(C)Cc2ccc(C(=O)Nc3ccccc3N)cc2)OCCCC[C@H](C)Oc2ccc(N(C)C)cc2C1=O`, the relative growth was inactive: 0.978. As to `COc1ccc(NC(=O)Cn2c(=O)c3c(OC)ccnc3n(C)c2=O)c(OC)c1`, the relative growth is inactive: 1.01. For the compound `C[C@H]1CN([C@@H](C)CO)C(=O)Cc2cc(NS(=O)(=O)c3cn(C)cn3)ccc2O[C@H]1CN(C)C(=O)Nc1ccccc1`, the relative growth was inactive: 0.99. Consider `NNC(=O)c1cc(=S)nc[nH]1`, for which the relative growth was inactive: 1.01. The value for `O=C([O-])CCCc1ccccc1.[Na+]` was inactive: 0.837. With `COc1ccccc1CN(C)C[C@H]1OCc2ccccc2-c2c(n(C)c3ccccc23)C(=O)N([C@H](C)CO)C[C@H]1C`, the relative growth was inactive: 0.989. With `O=S(=O)(NCC[C@@H]1CC[C@@H](NS(=O)(=O)c2ccccc2Cl)[C@@H](CO)O1)c1ccc(F)cc1`, the relative growth is inactive: 1.03.

Regarding `C[C@@H]1CCCCO[C@H](CN(C)S(=O)(=O)c2ccccc2)[C@H](C)CN([C@@H](C)CO)C(=O)c2cc(NS(=O)(=O)c3cn(C)cn3)ccc2O1`, the relative growth was inactive: 1.01.

Source of the values: the supplement of paper PMC9446081.
